Reference: PubChem BioAssay AID485344 (National Center for Advancing Translational Sciences (NCATS), 2010)
The whole screen tested about 340,000 compounds, of which about 6,900 (2%) were called active. No stated cut-off is given here; in the data, active means inhibition above about 30%; inactive means below that, where a call was filed. Only a part is listed here, and it is no random draw. The source gives no active or inactive call for entries shown without one.

The compounds below were run against D(2) dopamine receptor (Homo sapiens) (UniProt P14416) (assay: HTS Assay for Allosteric Antagonists of the Human D2 Dopamine Receptor: Primary Screen for Antagonists). Settings: HEK293 TREx D2 cells, calcium flux, dopamine EC80; at 10 µM; stronger effect = higher value.
Sequence of UniProt P14416 (P14416 whole entry, looked up): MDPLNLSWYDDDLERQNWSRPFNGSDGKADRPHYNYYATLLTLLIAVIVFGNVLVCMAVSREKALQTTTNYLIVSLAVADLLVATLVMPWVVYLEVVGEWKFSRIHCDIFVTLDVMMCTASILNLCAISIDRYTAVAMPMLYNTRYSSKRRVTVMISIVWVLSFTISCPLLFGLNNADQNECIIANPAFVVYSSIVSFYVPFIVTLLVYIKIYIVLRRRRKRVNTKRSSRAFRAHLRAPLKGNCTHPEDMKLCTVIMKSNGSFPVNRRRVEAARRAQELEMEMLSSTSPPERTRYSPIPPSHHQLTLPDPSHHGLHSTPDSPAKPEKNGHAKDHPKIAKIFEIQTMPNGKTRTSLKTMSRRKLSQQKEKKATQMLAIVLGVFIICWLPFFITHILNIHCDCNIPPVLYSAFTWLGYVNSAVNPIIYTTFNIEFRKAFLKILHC
Procedure, shortened: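 Overnight-induced (tetracycline, 30 C) HEK293 T-REx cells carrying force-coupled D2 receive a no-wash calcium dye, then compound, then EC80 dopamine at 180 s; signals are read kinetically throughout.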
Further: 0% is about no effect.

Structure (SMILES) | inhibition
COc1cc(OC)cc(C(=O)Nc2nnc3n2CCS3)c1 | 9.18%
Cc1ccc(C(=O)Nc2nc(-c3nnn(-c4cccc(C(F)(F)F)c4)c3C)ns2)cc1 | 4.69%
CCOC(=O)c1c(C)oc2nc(C)nc(NCc3cccc(Cl)c3)c12 | -4.41%
O=C(c1cccc(Cl)c1)n1nc(-c2cccnc2)nc1NCc1ccccc1 | 9.83%
CCc1ccccc1NC(=O)N1CCCC(CCC(=O)N(C)CCc2ccccn2)C1 (configuration not stated) | active: 32.8%
CCOC(=O)c1nc(Nc2ccc(C(=O)OC)cc2)c2ccccc2n1 | -9%
O=C(Nc1cccc(-c2nc3cccnc3s2)c1)c1cccc(Br)c1 | 10.8%
CCOC(=O)c1ccc(NC(=O)c2cn(-c3ccccc3)nc2-c2ccc(OC)c(OC)c2)cc1 | 4.4%
Cc1ccc(S(=O)(=O)c2nc(-c3cccs3)oc2SC(C)C)cc1 | 0.304%
N#Cc1ccccc1NC(=O)C(=O)NCCc1csc(-c2ccc(F)cc2)n1 | 18.1%
COc1ccc2c(Sc3ccc(Cl)cc3)c(C(=O)N3CCC(C)CC3)[nH]c2c1 | -13%
O=C(Cn1c(=O)oc2cc(S(=O)(=O)N3CCCC3)ccc21)Nc1ccc(F)cc1F | 9.49%
CCNC(=O)CC1C(=O)N(c2ccc(C)cc2)C(=O)N1CCC(C)C (configuration not stated) | 0.0814%
CCOC(=O)c1noc2ncn(CC(=O)Nc3cccc(Cl)c3)c(=O)c12 | 0.465%
O=C(CSc1c2c(nc3cc(Cl)ccc13)CCCC2)N1CCN(c2ccccc2F)CC1 | -11.8%
COc1ccccc1NC(=O)CSc1oc(-c2ccccc2)nc1S(=O)(=O)c1ccc(C)cc1 | 10.7%
CCc1cc2cccc(C)c2nc1SCC(=O)c1ccc(NC(C)=O)cc1 | active: 46.6%
Cc1ccc2nc(-c3cccnc3)c(Nc3ccc(C(C)C)cc3)n2c1 | 3.48%
O=C(NCCc1ccc(Cl)cc1)C1COc2ccccc2C1 (configuration not stated) | -17.9%
O=C(c1ccc(F)cc1)n1nc(-c2cccnc2)nc1NCc1ccc(F)cc1 | -3.45%
Cc1cn2c(=O)c(S(=O)(=O)N3CCN(c4cc(Cl)ccc4C)CC3)c(C)nc2s1 | 2.82%
COc1ccc(-c2cc(OC(=O)c3cccc(Cl)c3)c3c(C)oc(C)c3c(=O)c2)cc1 | -4.04%
COc1cc(NC(=O)N2CCC3(CC2)Nc2ccccc2-n2cccc23)cc(OC)c1OC | -4.04%
CCOc1ccc(NC(=O)Cn2nnc(C(=O)NCCc3ccccc3)c2N)cc1 | 11.6%
COc1ccc(-c2noc(-c3ccc(NCC4CCCO4)c([N+](=O)[O-])c3)n2)cc1 (configuration not stated) | 6.41%

Structure (SMILES) | inhibition
CCc1nn(CC(=O)Nc2c(C)cccc2C)c(=O)c2cc3sccc3n12 | -13.3%
O=C(CSc1nc2c([nH]c3ccccc32)c(=O)n1-c1ccccc1)Nc1ccc(Cl)c(Cl)c1 | 15.3%
CCOC(=O)/C(=C/C=C1\Sc2cc(OCC)c(OCC)cc2N1CC)C(C)=O | active: 72.2%
Sc1nnc(-c2ccc(Cl)cc2)n1Cc1ccccc1 | active: 39%
CC(C)(C)N(NC(=O)c1ccccc1)C(=O)c1ccc(C(=O)N(NC(=O)c2ccccc2)C(C)(C)C)cc1 | active: 33%
CCOc1ccccc1NC(=O)CSc1ncc(S(=O)(=O)c2ccc(C)c(C)c2)c(N)n1 | 6.92%
COc1ccc(NC(=S)NNS(=O)(=O)c2ccc3ccccc3c2)c(OC)c1 | active: 43.5%
COc1ccc(CCNC(=O)Cn2cc(S(=O)(=O)Cc3ccccc3Cl)c3ccccc32)cc1OC | -3.08%
CCSc1nnc2c(n1)OC(c1ccc(C)s1)Nc1ccccc1-2 (configuration not stated) | -2.95%
O=C(CSc1nnc(-c2ccccc2F)o1)Nc1ccccc1Cl | 2.91%
O=C(O)c1ccccc1SCc1nc2ccccn2c1Br | active: 51.1%
CCOc1ccc(NC(=O)N(Cc2c[nH]c3ccccc23)C2CCCCCC2)cc1 | 16.8%
COc1ccc(C2C(C(=O)Nc3ccccc3OC)=C(C)Nc3c(C(=O)Nc4ccccc4)cnn32)c(OC)c1 (configuration not stated) | 9.72%
Cc1ccc(NC(=O)c2c(C)oc3ccc(O)c(CN4CCOCC4)c23)c(C)c1 | 3.89%
CC(C)CCNC(=O)CCn1c(=O)c2cccn2c2cccnc21 | 10.7%
COc1cn(CC(=O)Nc2ccccc2)c(CN2CCCCC2)cc1=O | 21.2%
CCCn1c(=O)c2c(nc3n2CCN3c2ccc(C)cc2)n(C)c1=O | -9.08%
CC[C@@H](C)[C@@H](C(=O)Nc1ccc(C)cc1)N1Cc2ccccc2C1=O | 19.6%
CCN1CCCC1CNC(=O)c1csc2c1CCCC2 (configuration not stated) | active: 86.5%
CCOC(=O)c1c(NC(=O)c2cc(CC(C)C)on2)sc(C(C)=O)c1C | -11.6%
Cc1ccc(CN(C(=O)COc2ccc(Cl)cc2C)C2CCS(=O)(=O)C2)o1 (configuration not stated) | 1.28%
Cc1ccc(NC(=O)c2cc3c(=O)n(Cc4ccco4)ccc3nc2C)cc1C | 3.59%
COC(=O)c1cc(C(=O)OC)cc(-n2c(C)cc(C(=O)COC(=O)CNS(=O)(=O)c3ccc(C)cc3)c2C)c1 | active: 59.5%
Cn1c(=O)oc2cc(S(=O)(=O)NCCC(=O)NCCc3ccc(Cl)cc3)ccc21 | active: 59.1%
Cc1nc2sc(C(=O)N(C)c3ccccc3)c(NC(=O)c3ccccc3Cl)c2c(C)c1C | 2.14%

Structure (SMILES) | inhibition
CCN(CC)Cc1c(NC(=O)c2ccc(OC)cc2)sc2c1CCCC2 | 3.92%
CC(=O)Nc1ccc(Nc2nc3c(S(=O)(=O)c4cccc(Cl)c4)nnn3c3ccsc23)cc1 | 2.06%
COc1ccc(CCNC(=O)Cn2c(=O)c3cccn3c3ccc(F)cc32)c(OC)c1 | -6.83%
O=C(COc1ccccc1F)OCc1cc(=O)n2nc(C3CC3)sc2n1 | 3.17%
Cc1oc2ncn(CC(C)C)c(=O)c2c1C(=O)NCCCN1CCC(C)CC1 | -7.18%
COc1ccc(CCNC(=O)c2cnc3sc(N4CCCCC4)nn3c2=O)cc1OC | 4.43%
Cc1ccc(NC(=O)CN2C(=O)CCc3cc(S(=O)(=O)N4CCCCC4)ccc32)cc1C | -2.16%
COc1cccc(C(=O)Nc2ccc(-n3nncc3-c3ccccc3)cc2)c1 | -12.2%
Cc1cc(C)cc(-n2c(C)nc3cc(C(=O)NCc4ccccc4Cl)ccc32)c1 | -8.88%
O=C1CCCc2cc(S(=O)(=O)NCC3CCC(C(=O)NCc4ccccc4Cl)CC3)ccc2N1 (configuration not stated) | -7.71%
Cc1cccc(NC(=O)Nc2ccc(Br)cc2)n1 | 2.74%
Fc1ccc(N2CCN(c3ncnc4c3nc3n4CCCCC3)CC2)cc1 | 5.65%
COc1ccc(CCNC(=O)c2cc3c(s2)-c2ccccc2OC3)cc1OC | 9.39%
COc1ccc(S(=O)(=O)c2c(O)c3ccc(C(=O)NCc4ccccc4)cc3[nH]c2=O)cc1 | -1.82%
CCOC(=O)c1cnc2c(ccc3ccccc32)c1Nc1ccc(OCC)cc1 | -7.11%
CCOCCCn1c(=N)c(C(=O)NCc2cccnc2)cc2c(=O)n3cc(C)ccc3nc21 | 22.8%
CCOc1ccc(Nc2cc(C)nc3nc(Cc4ccc(Cl)cc4)nn23)cc1 | -0.938%
Cc1ccc(-n2nc3c(N4CCC(C(=O)NC(C)c5ccccc5)CC4)nnc(C)c3c2C)cc1 (configuration not stated) | 4.31%
COc1ccccc1N1CCN(C(=O)c2c(C)oc3ncn(CC(C)C)c(=O)c23)CC1 | 2.29%
O=C(Cn1ccc2ccccc2c1=O)NCCC(=O)Nc1ccc(F)cc1F | 8.93%
CCc1cccc(C)c1NC(=O)C1CCN(c2nn3c(=O)cc(C)nc3s2)CC1 | 0.43%
COc1ccc(-c2cc(C(F)(F)F)nc(SCC(=O)N3CCCCC3C)n2)cc1OC (configuration not stated) | 0.659%
COc1ccccc1N1CCN(CC(O)COCc2cccs2)CC1 (configuration not stated) | active: 80.7%
Cc1ccc2oc(=O)c3cc(C(=O)Nc4ccccc4C(N)=O)sc3c2c1 | -1.55%
Cc1onc(-c2c(F)cccc2Cl)c1C(=O)Nc1ccc(OC(C)C)cc1 | -7.73%

Structure (SMILES) | inhibition
CCOC(=O)C1CCCN(C(=O)Cn2ncc3c(C)n(Cc4ccccc4F)c(C)c3c2=O)C1 (configuration not stated) | 3.73%
COc1cc(C2C(=O)N(C3CCCCC3)CC(=O)N2CCC2=CCCCC2)ccc1OC(C)C (configuration not stated) | 4.38%
Cc1cc(C)cc(NC2=C(c3ccccc3)C(=O)c3ccccc32)c1 | -0.667%
COC(=O)CNC(c1ccccc1)c1cc(Br)ccc1NC(=O)c1ccccc1 (configuration not stated) | 24.7%
COc1cccc(-n2cc(C(=O)Nc3cc(OC)c(OC)c(OC)c3)c3ccccc3c2=O)c1 | -3.98%
CCOC(=O)c1cccc(NC(=O)c2cc(S(=O)(=O)N3CCCC(C)C3)cn2C)c1 (configuration not stated) | -3.88%
CC1=C(C(N)=O)C(c2ccc(C)cc2)n2nc(SCc3ccccc3F)nc2N1 (configuration not stated) | -0.404%
CC(C)OCCCNc1ncnc2c1nc1n2CCCC1 | active: 32.5%
CC(=O)Nc1ccccc1-c1nc2ccccc2n(CC(=O)c2ccc(Br)cc2)c1=O | -15.2%
O=[N+]([O-])c1ccccc1Nc1ccc(O)cc1 | active: 48.5%
Cc1ccc(S(=O)(=O)NCCSc2ncccn2)cc1 | active: 86.4%
CCCCOc1ccc(CNC(=O)c2ccc(-c3nc(CN4CCc5ccccc54)c(C)o3)cc2)cc1 | 16.6%
Cc1ccc(C(CC(=O)O)NC(=O)CN2C(=O)c3ccccc3C2=O)cc1 (configuration not stated) | active: 42.8%
CCc1ccc2oc(-c3cccc(NC(=O)c4cc5ccccc5o4)c3)nc2c1 | -9.02%
Cc1nc2c(C(=O)O)cnn2c(C)c1Cc1ccccc1 | 7.72%
CCCc1nn2c(=O)cc(COC(=O)c3ccc(NC(=O)CCc4ccccc4)cc3)nc2s1 | 2.38%
Cc1ccccc1C(=O)Nc1nc2nc(C)c(C)c(=O)n2[nH]1 | -4.51%
Cc1ccc(C(=O)CSc2ncc3c(n2)-c2ccccc2N(Cc2ccc(Cl)cc2)S3(=O)=O)cc1 | -3.52%
COCCNc1oc(-c2ccc(COc3ccc(OC)cc3)o2)nc1C#N | -2.66%
Cc1cc2nc3s/c(=C/c4ccc(-c5ccccc5C(=O)O)o4)c(=O)n3c2cc1C | active: 33.8%
Cc1ccc2c(c1)c(=O)c(C(=O)c1ccc3c(c1)OCO3)cn2Cc1cccc(F)c1 | 2.67%
Cc1ccc(-c2nn(-c3ccc(F)cc3F)c3c2cnc2c(F)cccc23)cc1 | -1.45%
